Measurements taken from PubChem BioAssay AID588342 (National Center for Advancing Translational Sciences (NCATS), 2011).
Where “and” joins values, the source holds several entries; their conditions need not be identical. Identical values can stand only once. Out of some 360,000 compounds screened, about 25,000 (6.9%) were called active. The shares of active, inactive and inconclusive entries below differ from those in the screen. Calls follow the shape of the dose curve; as a rule, active = well fitted inhibition curve with a large enough effect; inconclusive = small, poorly fitted or top-dose-only effect; inactive = flat fitted curve, though single readings scatter. Potencies of inconclusive entries are doubtful fits and often do not repeat.

molecular target: Luciferin 4-monooxygenase (Photinus pyralis) (UniProt P08659); test: qHTS profiling assay for firefly luciferase inhibitor/activator using purifed enzyme and Km concentrations of substrates (counterscreen for miR-21 project); details: purified FLuc, luminescence inhibition; series mostly up to 57.5 µM; also: nearly all actives have a fitted effect of over 55% in size
In short: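 Purified P. pyralis luciferase, 10 nM final, with Km-level 10 uM D-luciferin and 10 uM ATP in 50 mM Tris acetate pH 7.5, 10 mM Mg acetate, 0.01% Tween-20, 0.05% BSA; 6-point qHTS titration about 60 µM downward; luminescence read.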
Potency is read from the fitted curve at half-maximal effect; tags tell the direction and shape of the fitted curve.

UniProt P08659, sequence (P08659 whole entry, looked up): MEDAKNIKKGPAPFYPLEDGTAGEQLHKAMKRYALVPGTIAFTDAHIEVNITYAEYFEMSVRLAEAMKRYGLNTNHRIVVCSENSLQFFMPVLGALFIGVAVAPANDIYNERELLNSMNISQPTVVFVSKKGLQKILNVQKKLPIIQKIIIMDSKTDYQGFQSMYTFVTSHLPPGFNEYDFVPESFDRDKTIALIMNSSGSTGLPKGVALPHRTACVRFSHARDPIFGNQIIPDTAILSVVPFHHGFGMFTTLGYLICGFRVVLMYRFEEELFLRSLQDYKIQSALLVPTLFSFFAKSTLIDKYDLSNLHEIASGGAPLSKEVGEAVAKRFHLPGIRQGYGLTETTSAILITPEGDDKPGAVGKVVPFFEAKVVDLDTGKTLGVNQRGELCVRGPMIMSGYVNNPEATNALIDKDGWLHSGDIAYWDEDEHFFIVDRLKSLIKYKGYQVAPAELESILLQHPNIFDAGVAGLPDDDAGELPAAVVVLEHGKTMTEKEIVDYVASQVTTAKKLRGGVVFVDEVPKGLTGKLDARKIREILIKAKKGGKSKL

Structure (SMILES) | Potency
Cc1cccc(-c2cccc(NC(=O)C3CCCN(C(=O)c4ocnc4C)C3)c2)c1 (stereo not given) | inconclusive: 37.9 µM [inhibitor, single point]
COc1ccccc1OCc1ccc(C(=O)N(C)C)o1 | inconclusive: 37.9 µM [inhibitor, partial curve, poor fit]
O=C(NCCOc1ccccc1)c1cc2ccccc2o1 | active: 5.36 µM
COc1ccc2oc(C(=O)C3CC3)c(N)c2c1 | active: 13.5 µM
Cc1ccn2c(Nc3ccc4c(c3)OCO4)c(-c3ccc(Cl)cc3)nc2c1 | inactive
Cc1cccc(NC(=O)c2n[nH]c([N+](=O)[O-])c2Br)c1C | active: 3.79 µM
Cc1nc2c(C)cccc2cc1C(=O)N/N=C/c1ccc(N(C)C)cc1 | inconclusive: 37.9 µM [inhibitor, single point]
COc1ccc(CNC(=O)C23CC4CC(CC(Br)(C4)C2)C3)cc1 | inactive
CCCC(=O)C1=C(O)C(C(=O)OC)C(C)(C)CC1=Nc1ccc(N)cc1 (stereo not given) | inactive
O=C(N/N=C\c1ccc2c(c1)OCO2)c1ccc(Cn2cc(Br)c([N+](=O)[O-])n2)o1 | active: 6.01 µM
Cc1ccc(NC(=O)C(=O)NCC2CCCO2)cc1 (stereo not given) | inconclusive: 26.9 µM [inhibitor, single point]
COc1ccc(OCC(=O)NC(=S)Nc2ccccc2F)cc1 | inconclusive: 37.9 µM [inhibitor, partial curve, poor fit]
Cc1ccnc(NC(=O)CNC(=O)c2ccc3ccccc3c2)c1 | inconclusive: 23.9 µM [inhibitor, partial curve, poor fit]
CCCCCCC(=O)Nc1nc(C)c(-c2csc(Nc3ccccc3OC)n2)s1 | inconclusive: 9.53 µM [inhibitor, partial curve]
COc1ccccc1CNc1ccc(-c2nc(-c3ccccc3C)no2)cc1[N+](=O)[O-] | inconclusive: 9.53 µM [inhibitor, partial curve, poor fit]
CC(=O)c1c(C)nc(-c2ccc3c(c2)OCO3)n1O | inconclusive: 37.9 µM [inhibitor, single point]
CCOc1ccc(-c2nnc(NC(=O)Cc3cc(OC)c(OC)c(OC)c3)o2)cc1 | inconclusive: 37.9 µM [inhibitor, single point]
CCOc1nc(NC(=O)NS(=O)(=O)Oc2cccc(Cl)c2)nc(-c2ccccc2)n1 | inconclusive: 19 µM [inhibitor, partial curve] and inconclusive: 15.1 µM [inhibitor, partial curve]
Cc1cc(C)cc(NC(=O)C2CCN(C(=O)c3cnn(-c4ccccc4)c3-n3cccc3)CC2)c1 | inconclusive: 10.7 µM [inhibitor, partial curve, poor fit]
CCc1ccc(S(=O)(=O)/N=C2/C=C(Sc3ncn[nH]3)C(=O)c3ccccc32)cc1 | inconclusive: 21.3 µM [inhibitor, partial curve]
FC(F)(F)c1cccc(N2Cc3ccccc3C2)c1 | inconclusive: 21.3 µM [inhibitor, partial curve]
COc1ccc(NC(=O)c2ccco2)cc1NC(=O)c1ccc(Br)o1 | inactive
COc1ccc(CC2(CO)CCN(Cc3cccnc3)CC2)cc1 | active: 15.1 µM
Cc1cc(C(C)(C)C)oc1C(=O)Nc1ccc(CC(=O)O)cc1 | inconclusive: 26.9 µM [inhibitor, partial curve, poor fit]
COc1ccc(NC(=O)CN(C)C(=O)CCCSc2nc3ccccc3[nH]2)cc1 | inactive

Structure (SMILES) | Potency
CCOC(=O)C1CCN(C(=O)c2cc3ccc(OC)cc3[nH]2)CC1 | inactive
COc1cccc(NC(=O)CN(C)CC(=O)Nc2ccc(C)cc2Cl)c1 | inactive
Cc1ccc(SCC(=O)Nc2nccs2)cc1 | inconclusive: 23.9 µM [inhibitor, partial curve]
CN(C)S(=O)(=O)c1cccc(NC(=S)N/N=C/c2cc(Br)ccc2O)c1 | active: 19 µM
CNC(=O)Nc1ccc2nc(C)sc2c1 | inconclusive: 26.9 µM [inhibitor, single point]
Cc1cc(=O)n2[nH]c(=O)c(N=Nc3ccccc3)c2[nH]1 | inconclusive: 21.3 µM [inhibitor, partial curve, poor fit]
COC(=O)c1ccccc1NC(=O)CSc1nnnn1C1CCCCC1 | inconclusive: 21.3 µM [inhibitor, partial curve, poor fit]
COc1ccc(-c2nn(-c3ccccc3)cc2/C=C(/C#N)C(N)=O)cc1[N+](=O)[O-] | inactive
CC(=O)Nc1ccc(S(=O)(=O)N2CCC(n3cnc4cc(F)ccc43)CC2)cc1 | inactive
Cc1cccc(Nc2nnc(SCC(=O)NCc3cccs3)s2)c1 | active: 10.7 µM
COc1ccc(N(C(=O)c2ccc(Cl)cc2)S(=O)(=O)c2ccc(C)cc2)cc1 | inactive
Cc1ccc(N2C(=O)CS(=O)(=O)CC2=O)cc1 | inactive
O=C(CSc1nnc(NC(=O)c2ccco2)s1)NCc1ccc2c(c1)OCO2 | inconclusive: 37.9 µM [inhibitor, partial curve, poor fit]
CCN(c1ccccc1)c1nc2ccsc2c(=O)s1 | inconclusive: 23.9 µM [inhibitor, single point]
O=C(NCC1CCCO1)c1ccccc1-c1nc(-c2ccccc2)no1 (stereo not given) | inconclusive: 19 µM [inhibitor, partial curve]
COc1ccccc1-c1cc(C(=O)NCCN2CCOCC2)no1 | inactive
O=C(CCC1CCCC1)N1CCN(C(=O)c2cccnc2)CC1 | inactive
CCOC(=O)c1cnc2c(C)c(C)ccc2c1NCCN1CCOCC1 | inconclusive: 33.8 µM [inhibitor, partial curve, poor fit]
Cc1ccc(/C=N/NC(=O)CNC(=O)c2cccs2)o1 | inactive
O=C1C2C3CCC(C3)C2C(=O)N1c1ccc2ccccc2c1 (stereo not given) | inconclusive: 23.9 µM [inhibitor, single point]
COc1ccc(C2Cc3ccccc3C(=O)O2)cc1 (stereo not given) | inconclusive: 37.9 µM [inhibitor, partial curve, poor fit]
O=C(CCN1C(=O)/C(=C\C=C\c2ccccc2)SC1=S)Nc1ccc(C(=O)O)cc1 | active: 0.953 µM
CC(C)Cn1c(CCNC(=O)c2ccco2)nc2ccccc21 | inconclusive: 26.9 µM [inhibitor, single point]
O=C(Nc1cccc(NC(=O)C2C3CC4OC(=O)C2C4C3)c1)c1ccccc1 (stereo not given) | inconclusive: 19 µM [inhibitor, partial curve, poor fit]
Cc1nc2cc(-c3cccc(F)c3)nn2c(C)c1CCC(=O)NC(C)c1ccc2c(c1)OCCO2 (stereo not given) | inconclusive: 21.3 µM [inhibitor, single point]

Structure (SMILES) | Potency
CC(C)c1ccccc1N=C1SCCCN1C(=O)c1cccc(N2C(=O)CCC2=O)c1 | inactive
COC(=O)c1cc(NC2c3ccccc3C(=O)N2c2ccc(Cl)cn2)cc(C(=O)OC)c1 (stereo not given) | active: 6.01 µM
Cc1ccc(-c2ccnc3c(Cl)c(C)nn23)cc1 | inconclusive: 37.9 µM [inhibitor, partial curve, poor fit]
CCCCCCSc1nsc(NC(=O)CCC)n1 | inconclusive: 37.9 µM [inhibitor, partial curve, poor fit]
Cc1ccc(NC(=O)c2cnc(SCC(=O)NCC3CCCO3)n(C)c2=O)cc1C (stereo not given) | active: 4.78 µM
Nc1ccc2nc(SCC(=O)c3ccccc3)sc2c1 | inconclusive: 23.9 µM [inhibitor, single point]
Clc1cccc(Cl)c1CNc1ccc(N2CCCC2)cc1 | inconclusive: 26.9 µM [inhibitor, single point]
O=CN1CCCN(Cc2nc(-c3cccc(Cl)c3)no2)CC1 | inactive
COCCNc1nc(-c2ccccc2)nc2c1oc1ccccc12 | inconclusive: 30.1 µM [inhibitor, partial curve, poor fit]
CC1CCc2c(C(=O)NCc3cccnc3)csc2C1 (stereo not given) | inactive
S=C(c1ccc(N2CCOCC2)cc1)N1CCOCC1 | inactive
CCc1ccc2oc(-c3cccc(NC(=O)C(C)(C)Oc4ccc(Br)cc4)c3)nc2c1 | active: 2.13 µM
O=CN/N=C/c1c(O)ccc2ccccc12 | inactive
N#C/C(=C/c1ccc(N2CCCCC2)o1)c1cccc(F)c1 | active: 2.13 µM
O=C(O)c1ccccc1NS(=O)(=O)c1cccc(-n2sc3ccccc3c2=O)c1 | active: 10.7 µM
COc1ccc2nc(N3CCCC3)c(C#N)cc2c1 | active: 10.7 µM
CCCCNC(=S)N(C)/N=C/c1sc(N2CCCCC2)nc1-c1cccs1 | inconclusive: 1.9 µM [inhibitor, partial curve]
O=C(CSc1nnc(Nc2ccccc2)s1)NCCN1C(=O)CSC1=O | inconclusive: 19 µM [inhibitor, partial curve]
Cc1cccc(N2CC(C(=O)NCCC3=CCCCC3)CC2=O)c1C (stereo not given) | inconclusive: 7.57 µM [inhibitor, single point]
O=C(CCC1CCCC1)Nc1ccc(OCC(=O)N2CCOCC2)cc1 | active: 4.78 µM
CN(C)c1ccc(/C=C/C(=O)c2cc(Cl)ccc2O)cc1 | active: 9.53 µM
Cc1cc(OCC(=O)OCC(=O)c2ccc[nH]2)ccc1Cl | inconclusive: 16.9 µM [inhibitor, partial curve]
CCOc1ccc(OCCCCn2cnc3ccccc3c2=O)cc1 | inactive
Cc1cc(C)cc(NC(=O)C2CCN(S(=O)(=O)c3c(C)noc3/C=C/c3ccco3)CC2)c1 | inactive
C/C(=N\NC(=S)Nc1cccc(C)c1)c1cc2ccccc2o1 | inconclusive: 26.9 µM [inhibitor, single point]
